This test relates to cells. As to the kind of experiment: Internalization by flow cytometry with surface quench by anti-Alexa Fluor 488 antibody. In kind it is cell-based. To be noted: FIG. 13B. The protocol: These antibodies were analyzed for their internalization by flow cytometry using cells treated in two ways.
For the first way, the following operations were performed. Cells detached from culture dishes were suspended in staining buffer [PBS(−)-3% fetal bovine serum]. To this cell suspension, protease inhibitors were added (final concentration: 10 μg/mL leupeptin, 5 μM pepstatin) to prevent antibody molecules from being degraded in lysosomes after being taken up into the cells. Each Alexa Fluor 488-labeled antibody was added to the cell suspension at a final concentration of 30 μg/mL and then rotated with a rotator at room temperature for 1 hour. After being further rotated with a rotator at 37° C. for 3 hours, the cells were washed three times with the staining buffer and then measured for fluorescence signals by flow cytometry (FIG. 13B; isotype control, chimeric antibody).
The cells obtained in the first way were reacted at 4° C. for 1 hour with an antibody binding to Alexa Fluor 488 and thereby quenching its fluorescence (anti-Alexa Fluor 488, rabbit IgG antibody fraction: anti-Alexa Fluor 488 antibody) at a final concentration of 50 μg/mL to observe changes in fluorescence intensity (FIG. 13B; surface quench). […]
Background: A flow cytometer gives signals particle by particle.

B1: 430 human-mouse chimeric antibody: chimeric antibody, H chain SEQ ID NO: 44, L chain SEQ ID NO: 46 (antibody)
heavy: EIQLQQSGPEVVKPGTSVRVSCTASGYAFTQYNLYWVKLRHGKCPKWIGSIDPYIGGANYNQQFKDKVTLTVDKSSSTAYLHLNSLTSEDSAIYYCARWWDGYFDVWGAGTTVTVSS[human IgG1 constant region not spelt out]
light: QIVLTQSPAIMSASLGERVTMTCTASSSVSFRYLHWYQVKPGSSPKLWIYSTSNLASGVPSRISGSGSGTSYFLTISNMEAEDAATYYCHQYHRSPLTFGAGTKLELTRTVAAPSVFIFPPSDEQLKSGTASVVCLLNNFYPREAKVQWKVDNALQSGNSQESVTEQDSKDSTYSLSSTLTLSKADYEKHKVYACEVTHQGLSSPVTKSFNRGEC
In the case of B1, the “uptake into the cells compared with the 4B9b human-mouse chimeric antibody” value is on record as “more efficiently taken up into the cells than the 4B9b human-mouse chimeric antibody”. For the same molecule, under “labeled antibody 30 μg/mL, 1 hour room temperature and 3 hours 37° C.”, the “fluorescence upon addition of the anti-Alexa Fluor 488 antibody (surface quench)” value is “did not disappear”.

Values taken from patent US10214584B2, “Therapeutic pharmaceutical composition employing anti-SLC6A6 antibody” (ORDER-MADE MEDICAL RESEARCH INC., priority 2014, dated 2019).
